One assay concerns the target GFP-Arpin G218A (human) (UniProt Q7Z6K5). Description: co-IP; GFP-Arpin WT or mutants transiently expressed in 293T; GFP-trap agarose beads; 50 mM KCl, 10 mM Hepes pH 7.7, 1 mM MgCl2, 1 mM EGTA, 1% Triton; 2 h at 4 °C; Western blot.
In the next assay the target is GFP-Arpin G218D (human) (UniProt Q7Z6K5). The description is as above.
The next assay concerns the target GFP-Arpin R213A (human) (UniProt Q7Z6K5). The description is as above.
In another assay the target is GFP-Arpin R213D (human) (UniProt Q7Z6K5). Described as above.
Another assay has as its target GFP-Arpin W224A (human) (UniProt Q7Z6K5). Described as above.
The target in a further assay is GFP-Arpin WT (human) (UniProt Q7Z6K5). The description is as above.
Assay [1] has as its target His-PC-Arpin (Protein C-tagged human Arpin, wild type) (human) (UniProt Q7Z6K5). The assay can be described thus: co-IP; PC-tagged Arpin WT or mutants transiently expressed in 293T; HPC4 (anti-PC) beads with 1 mM Ca2+ and 2 µM ADP HDP PARG inhibitor; 50 mM KCl, 10 mM Hepes pH 7.7, 1 mM MgCl2, 1 mM EGTA, 1% Triton; 1 h at 4 °C; Western blot.
The target of assay [2] is PC-tagged Arpin G189A (human) (UniProt Q7Z6K5). The assay is described as above.
The target in assay [3] is PC-tagged Arpin G8A (human) (UniProt Q7Z6K5). Described as above.

The chains behind the UniProt entries cited, without tags or fusion partners.
UniProt O95271: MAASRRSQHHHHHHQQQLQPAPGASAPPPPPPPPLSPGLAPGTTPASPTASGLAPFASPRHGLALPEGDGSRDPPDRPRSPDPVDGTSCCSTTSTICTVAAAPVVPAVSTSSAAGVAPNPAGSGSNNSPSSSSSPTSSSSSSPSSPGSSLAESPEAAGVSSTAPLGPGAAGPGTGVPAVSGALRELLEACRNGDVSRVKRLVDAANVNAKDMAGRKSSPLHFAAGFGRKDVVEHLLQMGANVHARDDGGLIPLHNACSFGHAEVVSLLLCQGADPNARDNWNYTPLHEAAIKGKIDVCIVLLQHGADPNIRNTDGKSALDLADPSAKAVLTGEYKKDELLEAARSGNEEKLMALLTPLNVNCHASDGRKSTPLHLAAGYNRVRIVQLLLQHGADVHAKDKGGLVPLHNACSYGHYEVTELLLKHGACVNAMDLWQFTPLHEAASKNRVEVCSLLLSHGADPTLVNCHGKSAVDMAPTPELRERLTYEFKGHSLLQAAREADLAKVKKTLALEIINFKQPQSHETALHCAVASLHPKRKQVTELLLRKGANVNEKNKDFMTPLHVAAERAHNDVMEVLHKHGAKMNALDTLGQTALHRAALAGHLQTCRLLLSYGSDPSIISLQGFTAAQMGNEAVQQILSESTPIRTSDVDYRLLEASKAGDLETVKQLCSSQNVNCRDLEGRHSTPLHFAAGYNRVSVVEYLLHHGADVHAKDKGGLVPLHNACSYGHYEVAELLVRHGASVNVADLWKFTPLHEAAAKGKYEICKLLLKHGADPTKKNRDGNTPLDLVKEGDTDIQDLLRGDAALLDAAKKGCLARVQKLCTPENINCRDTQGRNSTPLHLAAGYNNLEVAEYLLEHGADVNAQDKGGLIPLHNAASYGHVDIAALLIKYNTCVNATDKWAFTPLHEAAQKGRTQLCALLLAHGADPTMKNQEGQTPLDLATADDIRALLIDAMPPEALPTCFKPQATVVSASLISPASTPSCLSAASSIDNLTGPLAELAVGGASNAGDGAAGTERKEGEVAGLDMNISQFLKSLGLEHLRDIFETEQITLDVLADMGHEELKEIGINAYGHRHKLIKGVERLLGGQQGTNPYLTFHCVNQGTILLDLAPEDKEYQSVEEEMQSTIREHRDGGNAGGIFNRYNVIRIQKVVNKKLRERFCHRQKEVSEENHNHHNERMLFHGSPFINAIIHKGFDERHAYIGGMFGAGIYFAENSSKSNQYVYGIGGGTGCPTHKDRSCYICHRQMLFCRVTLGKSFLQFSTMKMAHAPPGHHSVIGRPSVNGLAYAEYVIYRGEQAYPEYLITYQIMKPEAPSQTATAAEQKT

Drawing on PMC8073056, this text covers binding for one substance.

These are yes or no findings as the source states them, for the method shown. Binding seen in cells or lysates may run through a third protein. Some entries that bind do so weakly or less than the wild type.

In the case of “Tankyrase 1 (endogenous, 293 and 293T cells) (from UniProt O95271 1-1327) (enzyme)”, the binding entry is “no binding” in the assay with GFP-Arpin G218A (human); “no binding” with GFP-Arpin G218D (human); “no binding” in the assay with GFP-Arpin R213A (human); “no binding” in the assay with GFP-Arpin R213D (human); “binds” with GFP-Arpin W224A (human); “binds” with GFP-Arpin WT (human). Also, the binding entry in [1], in assay [2] and in assay [3] was “binds” each time.
